Test results published in paper PMC12820563, “FoxP3 forms a head-to-head dimer in vivo and stabilizes its multimerization on adjacent microsatellites”.
Some of the results follow.

Molecular target: T1, MBP-FoxP1dN (Mus musculus, UniProt P58462 326-579)
T1 sequence: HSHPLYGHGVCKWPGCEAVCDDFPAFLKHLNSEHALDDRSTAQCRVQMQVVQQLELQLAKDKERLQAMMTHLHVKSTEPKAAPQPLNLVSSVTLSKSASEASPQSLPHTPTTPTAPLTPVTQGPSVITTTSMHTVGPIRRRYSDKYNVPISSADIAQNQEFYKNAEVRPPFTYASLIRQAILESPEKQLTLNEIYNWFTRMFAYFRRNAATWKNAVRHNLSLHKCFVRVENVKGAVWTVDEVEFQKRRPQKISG
Test: PD-seq (MBP pull-down with sequencing); 20 mM Tris-HCl pH 7.5, 100 mM NaCl, 1.5 mM MgCl2, 0.4 uM protein, 0.1 uM dsDNA library, 30 min, room temperature, amylose pull-down; high values mean tight binding
Conditions: protein: recombinant; tags: His6-MBP; chain copies: 2; dsDNA, one strand shown
How it was run: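 A fragment of mouse FoxP3 or FoxP1 without its N-terminus, carrying a His6-MBP tag and produced in E. coli, was combined at 0.4 µM with a 0.1 µM degenerate double-stranded DNA library filled in with Klenow. The mixture sat for 30 min at room temperature in Tris pH 7.5 buffer containing NaCl and MgCl2. Protein–DNA complexes were captured on amylose resin, washed three times, and the DNA was freed with proteinase K, barcoded by PCR and sequenced on Illumina. Binding is expressed as reads-per-million enrichment of pull-down over input, with replicates pooled.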

Row | Sequence | binding signal
1 | GATGATTGTTCTCCCAGCTGATGAATTCTGTTGTTCGAGTAAACAAATTTTCCTAATCTTTCTGTTCAAGCGCCATCTAC | 2.6 RPM ratio (pull-down/input)
2 | GATGATTGTTCTCCCAGCTGATGAATTGAACGTTTCGAGTAAACAAATTTTCCTAATCTTTCTGTTCAAGCGCCATCTAC | 0.869 RPM ratio (pull-down/input)
3 | GATGATTGTTCTCCCAGCTGATGAATTAAGATCATCGAGTAAACAAATTTTCCTAATCTTTCTGTTCAAGCGCCATCTAC | 0.95 RPM ratio (pull-down/input)
4 | GATGATTGTTCTCCCAGCTGATGAATTATAATAGTCGAGTAAACAAATTTTCCTAATCTTTCTGTTCAAGCGCCATCTAC | 0.964 RPM ratio (pull-down/input)
5 | GATGATTGTTCTCCCAGCTGATGAATTACCTTGATCGAGTAAACAAATTTTCCTAATCTTTCTGTTCAAGCGCCATCTAC | 0.961 RPM ratio (pull-down/input)
6 | GATGATTGTTCTCCCAGCTGATGAATTCTATTGGTCGAGTAAACAAATTTTCCTAATCTTTCTGTTCAAGCGCCATCTAC | 1.41 RPM ratio (pull-down/input)
7 | GATGATTGTTCTCCCAGCTGATGAATTAACAGTCTCGAGTAAACAAATTTTCCTAATCTTTCTGTTCAAGCGCCATCTAC | 0.897 RPM ratio (pull-down/input)
8 | GATGATTGTTCTCCCAGCTGATGAATTCATAACTTCGAGTAAACAAATTTTCCTAATCTTTCTGTTCAAGCGCCATCTAC | 0.954 RPM ratio (pull-down/input)
9 | GATGATTGTTCTCCCAGCTGATGAATTAAGGTCGTCGAGTAAACAAATTTTCCTAATCTTTCTGTTCAAGCGCCATCTAC | 0.883 RPM ratio (pull-down/input)
10 | GATGATTGTTCTCCCAGCTGATGAATTGTGATCATCGAGTAAACAAATTTTCCTAATCTTTCTGTTCAAGCGCCATCTAC | 1.28 RPM ratio (pull-down/input)
11 | GATGATTGTTCTCCCAGCTGATGAATTGAAGGCCTCGAGTAAACAAATTTTCCTAATCTTTCTGTTCAAGCGCCATCTAC | 0.872 RPM ratio (pull-down/input)
12 | GATGATTGTTCTCCCAGCTGATGAATTCATCTGGTCGAGTAAACAAATTTTCCTAATCTTTCTGTTCAAGCGCCATCTAC | 0.892 RPM ratio (pull-down/input)
13 | GATGATTGTTCTCCCAGCTGATGAATTATTCAGCTCGAGTAAACAAATTTTCCTAATCTTTCTGTTCAAGCGCCATCTAC | 0.962 RPM ratio (pull-down/input)
14 | GATGATTGTTCTCCCAGCTGATGAATTGTCTAGCTCGAGTAAACAAATTTTCCTAATCTTTCTGTTCAAGCGCCATCTAC | 0.969 RPM ratio (pull-down/input)
15 | GATGATTGTTCTCCCAGCTGATGAATTATAGTCGTCGAGTAAACAAATTTTCCTAATCTTTCTGTTCAAGCGCCATCTAC | 0.926 RPM ratio (pull-down/input)
16 | GATGATTGTTCTCCCAGCTGATGAATTTTGGGGGTCGAGTAAACAAATTTTCCTAATCTTTCTGTTCAAGCGCCATCTAC | 0.764 RPM ratio (pull-down/input)

Row | Sequence | binding signal
17 | GATGATTGTTCTCCCAGCTGATGAATTAAGCGCGTCGAGTAAACAAATTTTCCTAATCTTTCTGTTCAAGCGCCATCTAC | 0.993 RPM ratio (pull-down/input)
18 | GATGATTGTTCTCCCAGCTGATGAATTGAAGTCGTCGAGTAAACAAATTTTCCTAATCTTTCTGTTCAAGCGCCATCTAC | 0.782 RPM ratio (pull-down/input)
19 | GATGATTGTTCTCCCAGCTGATGAATTGAGTGCATCGAGTAAACAAATTTTCCTAATCTTTCTGTTCAAGCGCCATCTAC | 1.33 RPM ratio (pull-down/input)
20 | GATGATTGTTCTCCCAGCTGATGAATTGAGGAGGTCGAGTAAACAAATTTTCCTAATCTTTCTGTTCAAGCGCCATCTAC | 0.749 RPM ratio (pull-down/input)
21 | GATGATTGTTCTCCCAGCTGATGAATTCTGGGCGTCGAGTAAACAAATTTTCCTAATCTTTCTGTTCAAGCGCCATCTAC | 0.81 RPM ratio (pull-down/input)
22 | GATGATTGTTCTCCCAGCTGATGAATTGTACCTCTCGAGTAAACAAATTTTCCTAATCTTTCTGTTCAAGCGCCATCTAC | 0.934 RPM ratio (pull-down/input)
23 | GATGATTGTTCTCCCAGCTGATGAATTCCACGCTTCGAGTAAACAAATTTTCCTAATCTTTCTGTTCAAGCGCCATCTAC | 0.913 RPM ratio (pull-down/input)
24 | GATGATTGTTCTCCCAGCTGATGAATTTTGCTATTCGAGTAAACAAATTTTCCTAATCTTTCTGTTCAAGCGCCATCTAC | 1.32 RPM ratio (pull-down/input)
25 | GATGATTGTTCTCCCAGCTGATGAATTTTTTTTGTCGAGTAAACAAATTTTCCTAATCTTTCTGTTCAAGCGCCATCTAC | 0.87 RPM ratio (pull-down/input)
26 | GATGATTGTTCTCCCAGCTGATGAATTAATTTATTCGAGTAAACAAATTTTCCTAATCTTTCTGTTCAAGCGCCATCTAC | 1.06 RPM ratio (pull-down/input)
27 | GATGATTGTTCTCCCAGCTGATGAATTTTACTAATCGAGTAAACAAATTTTCCTAATCTTTCTGTTCAAGCGCCATCTAC | 1.14 RPM ratio (pull-down/input)
28 | GATGATTGTTCTCCCAGCTGATGAATTCATAGGATCGAGTAAACAAATTTTCCTAATCTTTCTGTTCAAGCGCCATCTAC | 0.848 RPM ratio (pull-down/input)
29 | GATGATTGTTCTCCCAGCTGATGAATTCACTCTGTCGAGTAAACAAATTTTCCTAATCTTTCTGTTCAAGCGCCATCTAC | 0.841 RPM ratio (pull-down/input)
30 | GATGATTGTTCTCCCAGCTGATGAATTCACCTACTCGAGTAAACAAATTTTCCTAATCTTTCTGTTCAAGCGCCATCTAC | 0.921 RPM ratio (pull-down/input)
31 | GATGATTGTTCTCCCAGCTGATGAATTATCAATATCGAGTAAACAAATTTTCCTAATCTTTCTGTTCAAGCGCCATCTAC | 1.96 RPM ratio (pull-down/input)
